Measurements published in PubChem BioAssay AID1346428 (National Center for Advancing Translational Sciences (NCATS), 2018).
Several values for one entry are separate records, joined by “and”; a condition that tells them apart may be missing. Equal entries are not always repeated. Among all 48,000 compounds or so, about 1,200 (2.5%) were called active. Another 2% or so got no clear call; they are omitted.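 Rule for the calls: active = activation of at least 60% and not above a set upper limit (about 1 call in 100 departs from these limits); inconclusive = activation of 40% to 60%, or above that upper limit; inactive = activation under 40%.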 Some of the results follow.

target: Probable G-protein coupled receptor 32 (Homo sapiens) (UniProt O75388); experiment: qHTS for Agonists of Human Resolvin D1 Receptor DRV1; conditions: CHO-K1 GPR32 beta-arrestin PathHunter luminescence, 90 min; at 76.9 µM; stronger effect = higher value; zero percent set by DMSO-only wells; note: 0% is about no effect
UniProt O75388, sequence (O75388 whole entry, looked up): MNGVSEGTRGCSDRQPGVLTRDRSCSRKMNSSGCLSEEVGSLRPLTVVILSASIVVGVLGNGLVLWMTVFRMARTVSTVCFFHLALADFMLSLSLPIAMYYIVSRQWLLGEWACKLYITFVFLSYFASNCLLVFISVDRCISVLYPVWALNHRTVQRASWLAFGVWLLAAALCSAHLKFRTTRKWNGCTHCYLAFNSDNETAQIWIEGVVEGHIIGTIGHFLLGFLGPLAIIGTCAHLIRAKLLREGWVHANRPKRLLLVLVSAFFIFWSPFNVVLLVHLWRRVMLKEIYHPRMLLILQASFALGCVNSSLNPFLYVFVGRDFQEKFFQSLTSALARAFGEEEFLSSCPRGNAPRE
Method in brief: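 Luminescent readout of beta-Gal complementation quantifies ligand-induced beta-arrestin association with GPR32 in CHO-K1 cells; 90 min compound incubation at 37 °C, detection 1 h at room temperature.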

Which activation does the source give for CCOc1ccc(CNS(=O)(=O)c2ccc(-c3cc(C(F)(F)F)on3)s2)cc1 here?
The activation was inactive: 1.46%.

With COc1ccccc1CNC(=O)c1sc2nc3n(c(=O)c2c1C)CCC3 as the molecule, how does the activation read?
The activation was inactive: -18%.

Which activation does the source give for CCn1c(SCc2ccccc2F)nc(=O)c2c(C(=O)OC)cc(C3CC3)nc21 here?
The activation was inactive: 0.0152%.

CCOc1ccc(Cl)cc1C1CC(=O)Nc2cc(OC)c(OC)c(OC)c21 (centres undefined) was tested. Which activation did it give?
The activation was inactive: -11.7%.

Cc1cccc(N2CCN(C(=O)c3ccc(NC(=O)c4nsc5ccccc45)cc3)CC2C)c1 (centres undefined) was tested. Which activation did it give?
The activation was inactive: 8.22%.

With CCCNc1ccc(-c2nc(-c3ccncc3)no2)cc1[N+](=O)[O-] as the molecule, how does the activation read?
The activation was inactive: -22.7%.

For CCOc1ccc(-c2cc(C(=O)NCc3ccc(C)cc3)c3ccccc3n2)cc1, which activation is on record?
Its activation is inactive: -2.89%.

For CCOC(=O)C1CCCN(C(=O)Cn2ncc3c([nH]c4ccc(C)cc43)c2=O)C1 (centres undefined), which activation is on record?
The activation was inactive: 16.1%.

Which activation does the source give for NC(=O)C(c1ccccc1)(c1ccccc1)[C@@H]1CCN(CCc2ccc3c(c2)CCO3)C1 here?
The activation was inactive: -9.43%.

For Cc1ccc(C)c(N2CCN(C(=O)c3ccc4[nH]c(C)c(C)c4c3)CC2)c1, which activation is on record?
The activation was inactive: -10.9%.

With CCCC(CCC)C(=O)Nc1cccc(-c2cn3cccnc3n2)c1 as the molecule, how does the activation read?
The activation was inactive: 20.9%.

CSc1nc2c([nH]c3ccccc32)c(=O)n1-c1ccc(C)cc1 was tested. Which activation did it give?
The activation was inactive: 45.1%.

With Cc1ccc2nc(-c3ccc(Cl)c(NC(=O)c4ccc(Br)o4)c3)oc2c1 as the molecule, how does the activation read?
Its activation is inactive: -9.02%.

With O=C(COCc1cc(-c2ccc3c(c2)OCO3)on1)NCc1ccc(F)cc1 as the molecule, how does the activation read?
The activation was inactive: -7.83%.

Which activation does the source give for CSc1ccc(CCNC(=O)c2ccc(CS(=O)Cc3ccc(Cl)cc3)o2)cc1 (centres undefined) here?
Its activation is inactive: 16.6%.

Which activation does the source give for O=C(CSc1nc(-c2cccs2)nc2cc(=O)[nH]n12)Nc1ccccc1Cl here?
Its activation is inactive: -41.6%.

COc1cc(C2CC(=O)Nc3c2c(C)nn3-c2nncc(-c3ccccc3)n2)cc(OC)c1OC (centres undefined) was tested. Which activation did it give?
The activation was inactive: 5.13%.

How did the activation turn out when Cc1ccc(Cl)cc1NC(=O)c1cc(S(=O)(=O)N2CCCCCC2)cn1C was run?
Its activation is inactive: 8.31%.

How did the activation turn out when CCc1ccc2c(c1)NC(c1cccnc1)=NC(c1ccc(C(C)(C)C)cc1)=N2 was run?
Its activation is inactive: -8.02%.

With Cc1cccc(-c2nc(CSCC(=O)N3CCN(c4cccc(C)c4C)CC3)c(C)o2)c1 as the molecule, how does the activation read?
Its activation is inactive: -16.4%.

For Cc1ccc(C)c(N2CCN(S(=O)(=O)c3cc(C(=O)Nc4cc(Cl)cc(Cl)c4)ccc3F)CC2)c1, which activation is on record?
The activation was inactive: -8.45%.

How did the activation turn out when O=C(Nc1ccccc1Cl)c1cc2c(-c3ccccc3)nn(-c3ccccc3)c2s1 was run?
Its activation is inactive: -5.27%.

Which activation does the source give for CCN(c1ccccc1)c1nnc(NC(=O)Nc2ccc(C)cc2)s1 here?
Its activation is inactive: 1.31%.

O=C(OCc1cc(=O)n2nc(-c3cccs3)sc2n1)c1ccc(F)cc1 was tested. Which activation did it give?
Its activation is inactive: -16.8%.

Which activation does the source give for COc1ccc(Nc2ncc3c(n2)CCN(Cc2ccc(Br)s2)C3)c(OC)c1 here?
Its activation is inactive: -16.1%.

Which activation does the source give for Cc1ccc2nc3c(cc(C#N)c(=O)n3-c3nnc(SCc4ccccc4Cl)s3)c(=O)n2c1 here?
The activation was inactive: -7.54%.

How did the activation turn out when COc1ccc(/C=C/c2nc(C#N)c(N3CCC(C)CC3)o2)cc1OC was run?
The activation was inactive: -26.9%.

How did the activation turn out when CCOc1ccc(C(=O)Nc2cccc(-c3nc4cccnc4s3)c2C)cc1OCC was run?
Its activation is inactive: -10.8%.

How did the activation turn out when CC(=O)N1N=C(c2ccc(C)cc2)CC1c1cn(-c2ccccc2)nc1-c1cccs1 (centres undefined) was run?
The activation was inactive: -5.6%.

Which activation does the source give for CSc1ccc(CCNC(=O)c2ccc(-n3c(C)cc4c3CCCC4)cc2)cc1 here?
The activation was inactive: 15.3%.

Which activation does the source give for O=[N+]([O-])c1cccc2cn[nH]c12 here?
Its activation is inactive: -11.2%.

For CCc1ccccc1Nc1nn2c(=O)c3ccc(C(=O)NC4CCCCC4)cc3nc2s1, which activation is on record?
The activation was inactive: 1.76%.

For Cc1ccn2c(=O)c(C(=O)NCc3ccccc3Cl)c(O)nc2c1, which activation is on record?
The activation was inactive: 7.33%.

Which activation does the source give for COc1ccccc1OCC(O)CN1CCN(CC(=O)Nc2c(C)cccc2C)CC1 (centres undefined) here?
The activation was inactive: 10.8% and inactive: -6.23%.

With COc1cc(OC)c(NC(=O)c2c3c(nn2C)-c2ccccc2SC3)cc1Cl as the molecule, how does the activation read?
Its activation is inactive: 21.8%.

With CCOC(=O)c1c(N)n(-c2cccc(C)c2C)c2nc3ccccc3nc12 as the molecule, how does the activation read?
Its activation is inactive: 12%.

COc1cccc(C(=O)Nc2ccc(NC(=O)c3ccc(C(C)(C)C)cc3)cc2)c1 was tested. Which activation did it give?
Its activation is inactive: 6.23%.

COC(=O)C(CCSC)NC(=O)c1cc2c(n(-c3ccc(OC)cc3)c1=O)CC(C)(C)CC2=O (centres undefined) was tested. Which activation did it give?
The activation was inactive: 0.892%.

For Cc1ccc(N2CC(NC(=O)C3CCCCC3)CC2=O)cc1C (centres undefined), which activation is on record?
The activation was inactive: 10.3%.

With COc1ccc(S(=O)(=O)Nc2cccc(-c3ccc(N4CCCCCC4)nn3)c2)c(OC)c1 as the molecule, how does the activation read?
Its activation is inactive: 2.78%.

COc1cccc2c1Oc1ncccc1N(c1ccc(C(=O)NCc3cccc(C)c3)s1)C2 was tested. Which activation did it give?
Its activation is inactive: -18.5%.

With CC1(C(=O)Nc2ncc(Cc3ccc(Br)cc3)s2)Cc2ccccc2C(=O)O1 (centres undefined) as the molecule, how does the activation read?
Its activation is inactive: 0.83%.

COc1cc(/C=C(\C#N)C(=O)Nc2nnc(C(F)(F)F)s2)ccc1OCc1ccc(C(F)(F)F)cc1C(F)(F)F was tested. Which activation did it give?
Its activation is inactive: 9.57%.

CCC(C)NC(=O)c1ccc2nc(Cc3ccccc3)oc2c1 (centres undefined) was tested. Which activation did it give?
The activation was inactive: -10.7%.

With COc1ccc(-c2nc3scc(CCNC(=O)Cc4ccc(F)cc4)n3n2)cc1 as the molecule, how does the activation read?
The activation was inactive: 7.99%.

How did the activation turn out when COc1cc(OC)c(Nc2c3c(nc4nc(-c5cccs5)nn24)CCCC3)cc1Cl was run?
The activation was inactive: -55.5%.

For CCN(c1ccccc1)S(=O)(=O)c1nnc(NC(=O)c2ccco2)s1, which activation is on record?
The activation was inactive: 22.9%.

For Cc1ccccc1-c1nnc(SCC(=O)N2CCCCC2)o1, which activation is on record?
Its activation is inactive: -1.46%.

How did the activation turn out when Cc1ccc(-c2nc(CS(=O)(=O)CC(=O)Nc3cc(C)ccc3C)c(C)o2)cc1 was run?
Its activation is inactive: -6.29%.

With Cn1c(=O)cc(OCC(=O)NCc2ccc(F)cc2Cl)c2ccccc21 as the molecule, how does the activation read?
The activation was inactive: -4.11%.

How did the activation turn out when COc1ccc(CCNC(=O)CCCn2nc(C)c3sc4ccccc4c3c2=O)cc1OC was run?
The activation was inactive: -18.8%.

For Cc1csc2nc(COc3ccccc3NC(=O)c3ccccc3Cl)cc(=O)n12, which activation is on record?
The activation was inactive: 6.5%.

COc1cc(CN(C(=O)COc2ccc(Cl)c(C)c2)c2ccccn2)cc(OC)c1OC was tested. Which activation did it give?
The activation was inactive: 18.4%.

How did the activation turn out when Cc1ccc(-n2ncc(C(=O)Nc3c(Cl)cccc3Cl)c2C2CCNCC2)cc1 was run?
The activation was inactive: -17.4%.

How did the activation turn out when Cc1ccc(CNC(=O)C2CCCN(c3ncnc4onc(-c5ccc(F)cc5)c34)C2)cc1 (centres undefined) was run?
Its activation is inactive: -12.7%.

With O=C(CN1C(=O)CCSc2ccccc21)Nc1ccc(C(F)(F)F)cc1 as the molecule, how does the activation read?
Its activation is active: 63.1%.

How did the activation turn out when CN1CC(=O)Nc2cc(C(=O)O)ccc21 was run?
Its activation is inactive: -18.1%.

COc1ccc(OC)c(NC(=O)Cn2c(=O)cc(C)c3c(C)nn(-c4cccc(Cl)c4C)c32)c1 was tested. Which activation did it give?
Its activation is inactive: -17.9%.

Which activation does the source give for Cc1ccc(-n2cc(C(=O)OCc3ccc(F)c(F)c3)c3ccccc3c2=O)cc1 here?
Its activation is inactive: -9.06%.

With Cc1ccccc1-c1noc(-c2nnn(-c3ccccc3C)c2N)n1 as the molecule, how does the activation read?
Its activation is inactive: 16.1%.

For CCOC(=O)c1ccccc1NC(=O)Cn1ccn2nc(-c3ccc(OCC)cc3)cc2c1=O, which activation is on record?
Its activation is inactive: 1.22%.

How did the activation turn out when CCOc1ccccc1C(=O)Nc1ccc(S(=O)(=O)N(Cc2ccccc2)c2ccccc2)cc1 was run?
Its activation is inactive: -1.03%.

How did the activation turn out when CCOc1ccc(NC(=O)CN2CCN(CC(=O)Nc3ccc(F)cc3F)CC2)cc1 was run?
Its activation is inactive: 2.83%.

Which activation does the source give for CCCN1Cc2cccc(C(=O)Nc3ccccc3C(=O)OC)c2C1=O here?
The activation was inactive: -0.981%.

With COc1ccc(N2CCN(C(=O)c3cnn(-c4ccc(OC)cc4)c3C3CCN(C(=O)OC(C)(C)C)CC3)CC2)cc1 as the molecule, how does the activation read?
Its activation is inactive: -5.76%.

Which activation does the source give for COc1cc(C(=O)N2CCN(C(=O)COc3cccc(C)c3)CC2)cc(OC)c1OC here?
The activation was inactive: 9.44%.

How did the activation turn out when COc1ccc(Cc2nc3c4cnn(-c5cccc(F)c5)c4ncn3n2)cc1 was run?
The activation was inactive: -9.84%.

With COC(=O)c1c(NC(=O)COc2cccc(C(F)(F)F)c2)sc2c1CCCC2 as the molecule, how does the activation read?
The activation was inactive: 4.36%.

Cc1cccc(C(=O)N(Cc2ccccc2F)C2CCS(=O)(=O)C2)c1 (centres undefined) was tested. Which activation did it give?
The activation was inactive: -0.609%.

Which activation does the source give for CCCCOc1cccc(C(=O)N2CCN(CCc3ccncc3)CC2)c1 here?
The activation was inactive: -5.57%.

How did the activation turn out when Cc1c(Cl)cccc1-c1ccc(/C=C(\C#N)c2nc3ccccc3[nH]2)o1 was run?
The activation was inactive: 14.6%.

Which activation does the source give for CCCNC(=O)N1CCCN(S(=O)(=O)c2ccc3c(ccn3CC)c2)CC1 here?
The activation was inactive: -2.1%.

For CCN(CC)c1ccc(NS(=O)(=O)c2cc(-c3cc(C)no3)ccc2C)c(C)c1, which activation is on record?
The activation was inactive: -26.7%.

With CCN(CC)S(=O)(=O)c1ccc2c(c1)c(=O)c(C(=O)N1CCN(c3cccc(Cl)c3)CC1)cn2C as the molecule, how does the activation read?
The activation was inactive: -3.91%.

For CCOc1ccccc1CNC(=O)C1CCN(c2nc3ccccc3nc2C(F)(F)F)CC1, which activation is on record?
Its activation is inactive: -21.2%.

For COc1ccc(-c2n[nH]c3c2cnc2cc(OC)c(OC)cc23)cc1, which activation is on record?
The activation was inactive: 30.7%.

How did the activation turn out when Cn1c(=O)oc2cc(S(=O)(=O)NC(Cc3ccccc3)C(=O)NCc3ccccc3Cl)ccc21 (centres undefined) was run?
Its activation is inactive: -17.1%.

For CCc1ccc(C(=O)c2cn(CC(=O)Nc3ccc4c(c3)OCO4)c3ccc(F)cc3c2=O)cc1, which activation is on record?
Its activation is inactive: 8.12%.

With COc1cc(OC)c(NC(=O)c2ccc3c(c2)N(Cc2ccc(C)cc2)CCS3)cc1Cl as the molecule, how does the activation read?
Its activation is inactive: -14.4%.

Which activation does the source give for Cc1cccc(C2N=C(N)Nc3nc4ccccc4n32)c1 (centres undefined) here?
Its activation is inactive: 27.4%.

Which activation does the source give for Cc1ccc(CSC2=Nc3ccccc3C3=NC(CC(=O)NCc4ccc5c(c4)OCO5)C(=O)N23)cc1 (centres undefined) here?
Its activation is inactive: -9.27%.

For COc1ccc(CCCc2nnc(SCC(=O)Nc3ccc(C)cc3)o2)cc1C, which activation is on record?
Its activation is inactive: -4.99%.

Cc1ccc(-n2ncc(C(=O)NC3CCN(Cc4ccccc4)CC3)c2C2CCN(C(=O)OC(C)(C)C)CC2)cc1C was tested. Which activation did it give?
The activation was inactive: -26.9%.

How did the activation turn out when O=C(Nc1ccc2nc(SCC(=O)N3CCCc4ccccc43)sc2c1)c1ccc(Cl)cc1 was run?
Its activation is inactive: -12.2%.
